Source: patent US4309425A (priority 1980, dated 1982)

Legend:
[1] = tested on: Helminthosporium oryzae; test: rice Helminthosporium seed treatment test; assay type: in vivo; conditions: 1.3 g per kilogram of seed, 18 days
[2] = tested on: tomato seedlings; parameters: key: B = burn; conditions: 20 ppm
Method: (§1) Compounds of this invention are dissolved in acetone in an amount equal to 6% of the final volume and then suspended at a concentration of 20 ppm in purified water containing 25 ppm of the surfactant Alkanol® XC (sodium alkyl naphthalene sulfonate). This suspension is sprayed to the point of run-off on tomato seedlings. The following day, the plants are inoculated with a spore suspension of the fungus Phytophthora infestans and incubated in a growth room for 4 days. Disease ratings are then made. As shown in the following table, several of the compounds of this invention provided excellent disease control, as treated plants had no late blight lesions in contrast to untreated plants which were covered with lesions. Phytotoxicity in the form of foliar burn was observed on some of the plants in association with disease control.
as §1, with “day, 1/2 inch of simulated rainfall is applied to the foliage of the plants. When the foliage is dry,” for “day,”, “most” for “several”, “had little or” for “had”
as §1, with “seedlings. When the foliage is dry, the plants are exposed to 3500 foot candles of light from a xenon arc source for a period of 16 hours. This light source approximates the spectrum of natural sunlight, and is used to assess photostability of the compounds of this invention on plant foliage.” for “seedlings.”, “most” for “several”, “had little or” for “had”

Compound | % Control of rice Helminthosporium in a seed treatment test [1] [%] | Phytotoxicity ([2]; photostability test) | Phytotoxicity ([2]; preventive test) | Phytotoxicity ([2]; residual wash-off test)
CCCCN(SN(c1cc(C(F)(F)F)ccc1Cl)c1c([N+](=O)[O-])cc([N+](=O)[O-])cc1C(F)(F)F)S(=O)(=O)c1ccccc1C | 70 | B | B | B
CCCCN(SN(c1cc(C(F)(F)F)ccc1Cl)c1c([N+](=O)[O-])cc([N+](=O)[O-])cc1C(F)(F)F)S(=O)(=O)c1ccc(C)cc1 | 40 | B | B | B
CN(SN(c1cc(C(F)(F)F)ccc1Cl)c1c([N+](=O)[O-])cc([N+](=O)[O-])cc1C(F)(F)F)S(=O)(=O)c1ccc2ccccc2c1 | 100 | B | B | B
Cc1ccc(S(=O)(=O)N(C)SN(c2c(F)cc(F)cc2F)c2c([N+](=O)[O-])cc([N+](=O)[O-])cc2C(F)(F)F)cc1 | 90 |  |  | 
Cc1ccc(S(=O)(=O)N(C)SN(c2cc(C(F)(F)F)ccc2Cl)c2c([N+](=O)[O-])cc([N+](=O)[O-])cc2C(F)(F)F)cc1 | 70 | B | B | B
COC(=O)CN(SN(c1cc(C(F)(F)F)ccc1Cl)c1c([N+](=O)[O-])cc([N+](=O)[O-])cc1C(F)(F)F)S(=O)(=O)c1ccc(C)cc1 | 60 |  |  | 
O=C1CCCN1SN(c1cc(C(F)(F)F)ccc1Cl)c1c([N+](=O)[O-])cc([N+](=O)[O-])cc1C(F)(F)F | 80 | B | B | B
Cc1ccc(S(=O)(=O)N(SN(c2cc(C(F)(F)F)ccc2Cl)c2c([N+](=O)[O-])cc([N+](=O)[O-])cc2C(F)(F)F)C(C)C)cc1 | 70 |  | B | B
CCCCN(SN(c1cc(C(F)(F)F)ccc1Cl)c1c([N+](=O)[O-])cc([N+](=O)[O-])cc1C(F)(F)F)S(=O)(=O)c1ccccc1 | 20 | B | B | B
CCCCN(SN(c1cc(C(F)(F)F)ccc1Cl)c1c([N+](=O)[O-])cc([N+](=O)[O-])cc1C(F)(F)F)S(=O)(=O)N(C)C | 80 | B | B | B

Read-outs that look alike come from different tables or passages of the source.
